In publication PMC4617706:
No constants are given. Whether binding was seen depends on the method and setting. Some results given as binding are weak or reduced against the parent protein; the word gives no strength.

By UniProt entry, the sequences of proteins in these tests, tags left out. Where a name states a change or a piece, a line headed by the entry shows the natural chain unless it says otherwise.
UniProt Q9Y2I6: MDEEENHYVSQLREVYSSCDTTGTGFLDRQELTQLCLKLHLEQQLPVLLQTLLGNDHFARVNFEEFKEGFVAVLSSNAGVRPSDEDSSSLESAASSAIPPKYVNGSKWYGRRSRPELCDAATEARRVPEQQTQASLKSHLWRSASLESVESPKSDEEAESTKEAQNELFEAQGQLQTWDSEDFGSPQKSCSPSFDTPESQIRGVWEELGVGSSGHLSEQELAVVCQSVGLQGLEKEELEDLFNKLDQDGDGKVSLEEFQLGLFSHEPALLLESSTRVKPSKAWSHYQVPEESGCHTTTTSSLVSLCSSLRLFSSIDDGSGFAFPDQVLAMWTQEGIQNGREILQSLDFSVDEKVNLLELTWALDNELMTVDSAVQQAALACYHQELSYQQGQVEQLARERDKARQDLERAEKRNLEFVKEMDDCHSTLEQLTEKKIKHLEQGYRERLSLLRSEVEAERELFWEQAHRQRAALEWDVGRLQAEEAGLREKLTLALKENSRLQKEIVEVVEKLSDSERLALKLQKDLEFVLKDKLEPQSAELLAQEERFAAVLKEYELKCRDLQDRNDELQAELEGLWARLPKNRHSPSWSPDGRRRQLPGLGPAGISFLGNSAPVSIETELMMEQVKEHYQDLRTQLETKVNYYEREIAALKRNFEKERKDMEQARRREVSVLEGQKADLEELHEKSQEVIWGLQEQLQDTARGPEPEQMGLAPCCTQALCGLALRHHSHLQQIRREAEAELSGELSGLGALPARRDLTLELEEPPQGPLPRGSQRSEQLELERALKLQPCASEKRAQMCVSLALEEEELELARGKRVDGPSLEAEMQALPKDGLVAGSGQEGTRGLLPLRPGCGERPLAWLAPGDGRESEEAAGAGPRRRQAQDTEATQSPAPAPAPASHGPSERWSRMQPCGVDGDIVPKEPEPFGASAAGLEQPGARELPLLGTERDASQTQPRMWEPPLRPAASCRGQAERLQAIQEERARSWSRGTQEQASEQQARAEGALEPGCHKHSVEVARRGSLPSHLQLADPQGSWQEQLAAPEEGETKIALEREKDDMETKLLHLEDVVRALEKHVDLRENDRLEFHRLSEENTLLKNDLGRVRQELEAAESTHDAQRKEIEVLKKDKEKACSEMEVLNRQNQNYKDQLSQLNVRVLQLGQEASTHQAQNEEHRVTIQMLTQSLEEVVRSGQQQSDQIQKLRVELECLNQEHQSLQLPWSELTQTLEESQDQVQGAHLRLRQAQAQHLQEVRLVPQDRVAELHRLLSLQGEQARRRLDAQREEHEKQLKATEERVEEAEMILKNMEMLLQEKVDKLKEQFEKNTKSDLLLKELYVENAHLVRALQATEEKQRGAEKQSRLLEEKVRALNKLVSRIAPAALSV

Tests used:
[1] = target: NINL^isoB (binary yeast two-hybrid construct) (human) (UniProt Q9Y2I6); assay: two-hybrid; binary co-transformation in yeast, GAL4-based; growth on SD/-Trp/-Leu/-His and SD/-Trp/-Leu/-His/-Ade, beta-galactosidase filter lift assay
[2] = target: NINL^isoA (binary yeast two-hybrid construct) (human) (UniProt Q9Y2I6); assay: as above

binding [1]: binds | binding [2]: binds
B1: DZANK1 ZNF_RBZ domains (244-317aa), two-hybrid deletion construct (domain or fragment, UniProt Q9NVP4 244-317)
chain: PPEGAQMGLCAECRSLVPMNTPICVVCEAPLALQLQPQASLHLKEKVICRACGTGNPAHLRYCVTCEGALPSSQ
